In PubChem BioAssay AID1508624 (National Center for Advancing Translational Sciences (NCATS), 2021):
Among all 48,000 compounds or so, about 120 (0.25%) were called active. About 4% were inconclusive and are not listed. Calls follow the shape of the dose curve; as a rule, active = well fitted activation curve with a large enough effect; inconclusive = small, poorly fitted or top-dose-only effect, or another doubt; inactive = no such curve, though single readings can be large or run the other way. This is one part of the list.

Assay: Primary qHTS for Identification of Small Molecule Activators of Huntingtin-Antisense Promoter Activity; also: nearly all actives have a fitted effect of over 55% in size
Conditions: HEK293 HTT-AS promoter firefly luciferase reporter (activity 0% = vehicle and -100% = no light), 24 h; series mostly up to 57.5 µM; activity change, positive = activation: at the top concentration
Method in brief: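 Firefly luciferase readout (Dual-Glo, 10 min RT) after 24 h, 37 °C compound exposure (final up to 57.5 uM) of HEK293 reporter cells cultured 24 h beforehand; PTC124 at 50 uM final as control inhibitor; activity scaled vehicle 0%, zero RLU -100%.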

Activity change, positive = activation, inactive:
CCOC(=O)C1=C(CN2CCN(c3ccccc3F)CC2)NC(=O)NC1c1ccc(Cl)cc1 (stereo not given) -29.5%
CCOc1ccc(NC(=O)c2cc3cc4cc(OC)ccc4nc3s2)cc1 -16.7%
Cc1cccc(NS(=O)(=O)c2ccc3c(c2)OCC(C(=O)N2CCCC2)O3)c1C (stereo not given) -17.1%
CCc1nn(CCCC(=O)NCc2cc(Br)ccc2OC)c(=O)c2cc3occc3n12 -24.9%
COc1cccc(C(=O)Nc2cccc(C(=O)OCc3cc(=O)n4c5c(sc4n3)CCCC5)c2)c1 -15%
CCOC(=O)CSc1nc2c(sc3cccc(F)c32)c(=O)n1Cc1ccc(OC)cc1 -3.92%
COc1ccc2cc(CNc3ccc(C)cc3)c(=O)n(CC(=O)Nc3cccc(C(F)(F)F)c3)c2c1 -20.7%
Cc1ccc(-c2nnc(Nc3ccc(O)cc3)c3ccccc23)cc1S(=O)(=O)N1CCCCC1 -38.4%
O=c1c2cccnc2n(Cc2cccc(F)c2)c(=O)n1Cc1ccccc1Cl -22%
CC(C)(C)C(=O)Nc1ccc2nc(SCC(=O)N3CCc4ccccc43)sc2c1 -46.4%
Cc1ccc(S(=O)(=O)c2cn(CC(=O)Nc3ccc4c(c3)OCO4)c3ccccc3c2=O)cc1C -18%
COc1ccccc1-n1c(=O)c2c3c(sc2n(Cc2ccccc2F)c1=O)CN(C(C)=O)CC3 -25.2%
O=C(NCCS(=O)(=O)N1CCN(c2ccc(F)cc2)CC1)C1CC(=O)N(c2ccccc2)C1 (stereo not given) 5.94%
Cc1ccc(NC(=O)N2CCN(C)c3ncccc32)cc1C -12.8%
O=C(CN1C(=O)COc2ccc(S(=O)(=O)N3CCCCCC3)cc21)NCCc1ccccc1 -16%
Cc1ccc(CN2C(=O)N(c3ccccc3)C(=O)C2CC(=O)Nc2ccccc2)cc1 (stereo not given) 3.12%
COc1cc(OC)c(N(C)C(=O)Cn2ncc3c(=O)oc4ccccc4c32)cc1Cl -3.12%
COCCNC(=O)c1c(NC(=O)c2cc(=O)c3cc(Cl)ccc3o2)sc2c1CCCC2 -6.86%
COC(=O)c1ccccc1NC(=O)N1CCC(n2c(C)nc3cccnc32)CC1 -17.5%
CCc1cccc(C)c1NC(=O)Cn1cc2c(n1)CCCCC2 -21.2%
COc1ccccc1NC(=O)Cn1nnc(C(=O)Nc2ccccc2Br)c1N -1.94%
CC(=O)N1CCN(c2csc3ccc(Br)cc3c2=O)CC1 16.7%
Cc1ccc(CNC(=O)c2cc(=O)c3cc(C)cc(C)c3o2)cc1 -9.91%
COC(=O)c1ccccc1NC(=O)c1cnc2sc(N3CCOCC3)nn2c1=O -12.2%
CCC(C)NC(=O)CSc1nc(-c2ccc(F)cc2)cc(C(F)(F)F)n1 (stereo not given) -3.01%
CCN1C(=O)c2ccccc2S(=O)c2ccc(C(=O)N3CCN(c4ccccc4OC)CC3)cc21 (stereo not given) -41.6%
COc1cccc(CNC(=O)CCCCCn2c(=O)[nH]c3cc(OC)c(OC)cc3c2=O)c1 -6.56%
CCOC(=O)c1c(C)[nH]c(C)c1S(=O)(=O)NCC(=O)NCc1ccccc1Cl -0.229%
COc1cc(C(CC(=O)Nc2cc(C)ccn2)N2Cc3ccccc3C2=O)cc(OC)c1OC (stereo not given) -7.52%
COc1cc(-c2oc3ccc(C)cc3c(=O)c2O)cc(OC)c1OC -13.2%
COc1ccccc1NC(=O)CSc1oc(-c2ccccc2)nc1S(=O)(=O)c1ccccc1 -13.8%
COc1ccc2c(c1)c1c(c(=O)n(-c3cccc(C)c3)c(=O)n1CC(=O)NCC1CCCO1)n2C (stereo not given) -7.98%
COc1ccccc1CNC(=O)CCCn1c(=O)c2ccccc2n(Cc2ccccc2C#N)c1=O -12.9%
Cc1cccc(Cc2c(C)nc3nc(SCc4ccccc4F)nn3c2C)c1 -20.5%
CCOc1ccccc1C(=O)Nc1ccc(S(=O)(=O)Nc2ncccn2)cc1 -13%
CC(C)=CCC/C(C)=C/CC/C(C)=C/C(=O)OCC(=O)[C@@]1(O)CC[C@H]2[C@@H]3CCC4=CC(=O)C=C[C@]4(C)[C@H]3[C@@H](O)C[C@@]21C -2.72%
CCCN1CCN(CCNC(=O)Nc2ccccc2OCC)CC1 -5.13%
CCCN(Cc1cccs1)C(=O)Nc1ccc(Br)cc1F 3.9%
COc1ccc2[nH]c(=O)c(CN(C(=O)c3cccc(Cl)c3)c3cccc(C)c3)cc2c1 -20.9%
C[C@H]1C[C@H]2[C@@H]3CCC4=CC(=O)C=C[C@]4(C)[C@@H]3C(=O)C[C@]2(C)[C@@]1(O)C(=O)CO -21.8%
CCN1CCN(c2ncc3c(n2)CCN(Cc2ccc(OC)c(OC)c2)C3)CC1 -7.87%
Cc1ccc(NC(=O)C2CCCN2S(=O)(=O)c2ccc3c(c2)C(C)(C)C(=O)N3C)cc1 (stereo not given) -29.7%
Cc1cccc(N2CCN(C(=O)Cn3ncc4c([nH]c5ccccc54)c3=O)CC2C)c1 (stereo not given) -3.34%
Cn1cnc(S(=O)(=O)N2CCCC(C(=O)NCc3ccccc3)C2)c1 (stereo not given) -3.87%
COc1ccc(-c2cc(C)no2)cc1S(=O)(=O)NC1CCC(C)CC1 (stereo not given) -19.8%
CCOc1ccc(NC(=O)c2cc(C)nc3c2c(C)nn3-c2cccc(F)c2)cc1 -10.6%
CC1(C(=O)NC2CCCCC2)Cc2ccccc2C(=O)N1Cc1ccc(F)cc1 (stereo not given) -15.4%
Cc1ccc(S(=O)(=O)c2nc(-c3ccco3)oc2SCc2ccc(F)cc2)cc1 -22.1%
Cc1c(OCC(F)(F)F)ccnc1CS(=O)c1nc2ccccc2[nH]1 (stereo not given) -0.17%
CCOc1ccc(-n2ccnc2SCC(=O)Nc2ccc3c(c2)OCO3)cc1 -33.3%
O=C(CSc1nc2ccccc2nc1Cc1ccccc1)Nc1ccccc1C(F)(F)F -21%
COc1ccc(S(=O)(=O)NCCc2sc3nc(-c4ccc(C)cc4)nn3c2C)cc1F -31.3%
O=C(NCCS(=O)(=O)N1CCN(c2ccccc2F)CC1)C1CC(=O)N(c2ccccc2)C1 (stereo not given) 6.97%
CCOc1ccc(CNC(=O)c2cnc3sc(N(CC)CC)nn3c2=O)cc1 -9.52%
COc1cccc(NC(=O)c2c(N3CCCC3=O)c3cc(C)ccc3n2C)c1 -32.9%
Nc1nc(F)nc2c1ncn2[C@@H]1O[C@H](CO)[C@@H](O)[C@@H]1O
COc1ccc(OC)c(NC(=O)Cn2c(=O)n(Cc3nc(C)no3)c(=O)c3ccccc32)c1 -11.3%
COc1ccc(Cl)cc1NC(=O)NCCc1c(C)nn(C)c1C 6.16%
CCc1cccc(C)c1NC(=O)c1ccc2c(c1)CCN2S(=O)(=O)CC -30.6%
O=C(CSC1=Nc2ccccc2N=C(c2ccc(F)cc2)C1)Nc1ccc(Cl)cc1 -9.08%
CC(=O)Nc1ccc(NC(=O)c2cc(-c3cccs3)on2)cc1 -0.941%
Cc1ccc(Sc2c(C)nn(C(=O)c3ccc(Br)cc3)c2C)cc1 -20.7%
COc1ccc(Nc2ncnc3onc(C)c23)c(OC)c1 -13.5%
COc1ccccc1CNS(=O)(=O)c1ccc2c(c1)CC(C)N2C(=O)C1CCC1 (stereo not given) 0%
CC(C)(C)c1nnc(NS(=O)(=O)c2ccc(N)cc2)s1 -19.3%
COc1ccc(N2CCN(C(=O)C(C)n3c(=O)cc(C(F)(F)F)c4c(C)nn(C)c43)CC2)cc1 (stereo not given) -9.43%
CCC(C)NC(=O)Cc1ccc(NC(=O)N2CCCCc3ccccc32)cc1 (stereo not given) -16.3%
Cc1cc(C)cc(OCc2cc(=O)n3c4c(sc3n2)CCCC4)c1 -7.59%
Cc1ccc(-n2c(=O)c3oc4ccccc4c3n(CC(=O)Nc3ccc(F)c(Cl)c3)c2=O)cc1C -6.88%
N#Cc1ccccc1NC(=O)C(=O)NCC(c1ccc2c(c1)OCO2)N1CCOCC1 (stereo not given) -7.96%
O=C(CS(=O)(=O)c1cccc2nsnc12)Nc1ccc(F)cc1F -0.52%
CC(C)CCNC(=O)c1c2c(nc3ccccc13)C(=O)N(C1CCCCC1)C2 -4.87%
CC(=O)N1CCOc2cc(S(=O)(=O)Nc3c(C)cccc3C(C)C)c(Cl)cc21 -27.5%
O=C(Nc1ccccc1F)C1CCN(S(=O)(=O)c2ccc3c(c2)CCCN3C(=O)C2CCC2)CC1 -22.3%
CCCCN(C)C(=O)c1ccc2c(c1)N(Cc1ccc(F)cc1)C(=O)c1ccccc1S2(=O)=O -34.5%
Cc1ccc(-c2nc(CS(=O)CC(=O)N3CCN(c4ccc(F)cc4)CC3)c(C)o2)cc1 (stereo not given) -30.2%
CCc1ccccc1NC(=O)C(CC)Oc1ccccc1-c1nnc(-c2ccccc2)o1 (stereo not given) -13.2%
O=C(Nc1ccc(C(=O)OCc2cc(=O)n3nc(C4CC4)sc3n2)cc1)c1cccc(Cl)c1 8.45%
CCOC(=O)CCCN1C(=O)CCn2nc(-c3cn(C)c4ccccc34)cc21 -4.08%
CCCCN(Cc1ccccc1)S(=O)(=O)c1cc(Br)cc2c1N(C(C)=O)CC2 -0.93%
COc1ccc(C(=O)Nc2c(C(=O)c3ccc(F)cc3)oc3ccccc23)cc1 3.66%
CCc1cccc(C)c1NC(=O)C1CCN(S(=O)(=O)c2cccc3nonc23)CC1 -24.3%
O=C1CC(c2ccc(Cl)cc2)c2cc3c(cc2N1)OCCO3 (stereo not given) -28.8%
COc1ccc(-c2nc3c(c(SCC(=O)Nc4ccccc4OC)n2)Cc2cccc(C)c2O3)cc1 17.2%
CCOc1ccc(CNC(=O)c2cccn2-c2nnc(N3CCCCC3)s2)cc1OC -15.1%
CCOCCCNC(=O)c1cc(=O)[nH]c2ccc(S(=O)(=O)N3CCCC3)cc12 -12%
CCCCC(=O)Nc1c(C(=O)N2CCN(c3ccccc3)CC2)oc2ccccc12 -23%
CCCSc1ncc(Cl)c(C(=O)Nc2scc(-c3ccc(C)cc3)c2C(=O)OCC)n1 -6.48%
O=C1NC(=O)[C@@]2(CCOc3ccc(F)cc32)N1 -10.4%
Cc1ccc(Cl)cc1N1CCN(C(=O)c2nn(C)c3c2CS(=O)(=O)c2ccccc2-3)CC1 -30.1%
Cc1ccc(Cl)cc1NC(=O)c1cc(CN2CCCC2)on1 5.08%
COc1ccc(CCNC(=O)CCc2cn(Cc3ccc(F)cc3)c3ccccc23)cc1OC -40.9%
Cc1cccc(N2CCN(C(=O)c3cccn3-c3nnc(N4CCCCC4)s3)CC2)c1C -32.8%
CCc1ccc(NC(=O)c2ccc(NS(=O)(=O)c3c(C)noc3C)cc2)cc1 -27.1%
CCc1cccc(C)c1NC(=O)c1cc(S(=O)(=O)N2CCCCCC2)cn1C -23.5%
